Results reported in PubChem BioAssay AID686979 (National Center for Advancing Translational Sciences (NCATS), 2013).
About 50,000 (12%) of roughly 420,000 compounds were called active. The inconclusive results got no clear call from the source; some entries with a clear call stand among them for comparison. The call rests on the fitted dose curve; in most records, active means well fitted inhibition curve with a large enough effect; inconclusive means small, poorly fitted or top-dose-only effect; inactive means flat fitted curve, though single readings scatter. No potency is given beside an inconclusive call; the fits are too rough.

Assay: qHTS for Inhibitors of human tyrosyl-DNA phosphodiesterase 1 (TDP1): qHTS in cells in presence of CPT; further: nearly all actives have a fitted effect of over 55% in size
Settings: chicken DT40 Tdp1-/-;hTDP1 cells + 20 nM CPT, ATP luminescence, 48 h; activity change, negative = growth inhibition: at 46.2 µM (top of the series) unless noted
Method in brief: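 Chicken DT40 Tdp1-/- cells stably complemented with human TDP1 were seeded at 400 cells/well in medium containing 20 nM camptothecin, exposed to pin-transferred compounds, and grown at 37 °C for at least 48 hr. Viability was read as ATP luminescence.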
On the % scale 0 is the no-effect control and ±100 the full control effect; potency means the concentration at half of the fitted maximal effect; tags describe the fitted curve by direction and shape.

Row | SMILES | Potency | activity change, negative = growth inhibition
1 | O=C(O)c1ccc(NC(=S)NC(=O)c2cccnc2)cc1 | inconclusive [inhibitor, single point] | –
2 | O=C(c1ccc(Cl)cc1)C(Cn1cncn1)C(Sc1ccccc1)c1ccccc1 (stereo not drawn) | inconclusive [inhibitor, single point] | –
3 | CCOC(=O)C1(CCCc2ccccc2)CCN(Cc2ccn[nH]2)CC1 | inconclusive [inhibitor, single point] | –
4 | CCCOc1ccc(CNC(=O)c2cc3ccccn3n2)cc1 | inconclusive [inhibitor, single point] | –
5 | O=C(NC(=S)Nc1cccc(-c2ccc(CO)o2)c1)c1cccs1 | inconclusive [inhibitor, single point] | –
6 | CCCCOC(=O)c1ccc(NC(=S)NC(=O)c2c(Cl)cnn2CC)cc1 | inconclusive [inhibitor, single point] | –
7 | CC(C)CCOc1ccc(CO[C@@H]2[C@H]3OC(C)(C)O[C@H]3O[C@@H]2C(O)CO)cc1 (stereo partly drawn) | inconclusive [inhibitor, single point] | –
8 | C[C@H]1C(=O)N(C)CCN1Cc1cn(C)nc1-c1ccc(Oc2ccccc2)cc1 | inconclusive [inhibitor, single point] | –
9 | CC1(C)CCC[C@]2(C)C(CS(=O)c3ccccc3)=C(C=O)CC[C@@H]12 (stereo partly drawn) | inconclusive [inhibitor, single point] | –
10 | CC1(C(=O)NCc2ccc(F)c(F)c2)Cc2c(-c3ccccc3)ccnc2O1 (stereo not drawn) | active: 10.3 µM | –
11 | CCc1cccc(NC(=O)CCNS(=O)(=O)c2ccc3c(c2)CCN3C(C)=O)c1 | inconclusive [inhibitor, single point] | –
12 | CCn1c(=S)sc2c(=O)n(CC(=O)Nc3ccc(Cl)cc3)c(C)nc21 | inconclusive [inhibitor, single point] | –
13 | CCOC(=O)c1c(-c2ccccc2)csc1NC(=O)c1cc2ccccc2oc1=O | inconclusive [inhibitor, single point] | –
14 | CC(=O)Nc1ccc2oc(-c3cc(F)c(F)cc3Cl)nc2c1 | – | inactive: 5.01%
15 | C=C(C)CNC(=S)N/N=C(\C)c1ccc(Cl)s1 | inconclusive [inhibitor, single point] | –
16 | NNC(=S)NCc1ccco1 | – | inactive: 15.4%
17 | Cc1cc2[nH]ncc2cc1NC(=S)NC(=O)c1ccccc1 | inconclusive [inhibitor, partial curve, poor fit] | –
18 | Cc1cc(C(=O)COc2ccccc2C#N)c(C)n1C1CC1 | inconclusive [inhibitor, partial curve] | –
19 | COc1ccc(N2CCN(CCCNC(=O)c3ccc4nc(N5CCCCC5)sc4c3)CC2)cc1 | active: 16.4 µM | –
20 | Cc1ccc(S(=O)(=O)N2CCN(c3ccc([N+](=O)[O-])c(Sc4nncn4C)c3)CC2)cc1 | inconclusive [inhibitor, single point] | –
21 | Cc1cc(C)cc(N(CC(=O)N2CCCCCC2)S(C)(=O)=O)c1 | – | inactive: 31.2%
22 | Cc1ccc(/C=C/c2onc(C)c2S(=O)(=O)N2CCC(C(=O)N(CCC(C)C)Cc3ccco3)CC2)cc1 | inconclusive [inhibitor, single point] | –

Row | SMILES | Potency | activity change, negative = growth inhibition
23 | CC1(C)CC(N2CCN(c3ccccc3)CC2)=CC(=[N+]2CCCC2)C1 | active: 0.184 µM | –
24 | CCOCCN1CCN(c2c3c(nc4cc(-c5ccc(F)cc5)nn24)CCC3)CC1 | inconclusive [inhibitor, single point] | –
25 | Cc1ccc(C(=O)c2cnc3ccccc3c2-c2ccccc2)cc1 | inconclusive [inhibitor, partial curve] | –
26 | CCn1c(SCC(=O)Nc2ccc(C(C)=O)cc2)nc2nc3c(cc2c1=O)COC(C)(C)C3 | – | inactive: -0.318%
27 | C=CCc1ccccc1OCCNCc1ccccc1 | inconclusive [inhibitor, single point] | –
28 | CN(C(=O)COc1coc(CN2CCN(c3ccccc3)CC2)cc1=O)c1ccccc1 | – | inactive: -21.2%
29 | Cc1nc2c(C)cccn2c1/C(O)=C1\C(=O)C(=O)N(CCN(C)C)C1c1cccs1 (stereo not drawn) | – | inactive: 6.62%
30 | Cc1ccc(CNC(=O)c2ccc(CS(=O)(=O)c3ccccc3C)o2)cc1 | inconclusive [inhibitor, single point] | –
31 | CCOc1ccc(CN(C)CC(=O)Nc2ccc([N+](=O)[O-])cc2Cl)cc1 | inconclusive [inhibitor, single point] | –
32 | Cc1[nH]n(C2=NCCS2)c(=O)c1N=Nc1cccc(C(F)(F)F)c1 | active: 3.66 µM | –
33 | O=C(NCc1cccc(Br)c1)C1CC(c2ccccc2[N+](=O)[O-])=NO1 (stereo not drawn) | inconclusive [inhibitor, single point] | –
34 | CCOc1cc(NC2CS(=O)(=O)CC2O)c(OCC)cc1NC(=O)c1ccccc1 (stereo not drawn) | inconclusive [inhibitor, partial curve] | –
35 | Cc1nn(-c2ccc(Cl)cc2)c2sc(C(=O)N3CCN(c4ccccn4)CC3)cc12 | inconclusive [inhibitor, single point] | –
36 | CCCCn1nnnc1C(c1cccc2ccccc12)N1CCN(C/C=C/c2ccccc2)CC1 (stereo not drawn) | inconclusive [inhibitor, single point] | –
37 | CN1C2CCC1/C(=C\c1ccc(F)cc1)C(=O)/C2=C/c1ccc(F)cc1 | active: 20.6 µM | –
38 | Cn1cc(CN2CCC(C(=O)N3CCCC3)CC2)c(-c2ccccc2F)n1 | – | inactive: 4.24%
39 | Nn1c(SCC(=O)Nc2ccc3c(c2)OCO3)nnc1-c1cccc(Cl)c1 | – | inactive: -22%
40 | COc1ccc(CNS(=O)(=O)c2ccc(-n3cccn3)cc2)cc1 | inconclusive [inhibitor, single point] | –
41 | CN(CC(=O)Nc1cccc(F)c1)C(=O)CC1CCCCC1 | – | inactive: -31.6%
42 | CN(Cc1ccccc1)Cc1ccccc1C(O)c1ccccc1 (stereo not drawn) | inconclusive [inhibitor, single point] | –
43 | CCCCn1c(N)c(NCCC(C)C)c(=O)[nH]c1=O | inconclusive [inhibitor, single point] | –
